Target: Recombinant Human IL-13 (human, UniProt P35225 fragment, limits assumed)
Assay: cell-based or functional assay

UniProt P35225, sequence (P35225 35-146 limits assumed): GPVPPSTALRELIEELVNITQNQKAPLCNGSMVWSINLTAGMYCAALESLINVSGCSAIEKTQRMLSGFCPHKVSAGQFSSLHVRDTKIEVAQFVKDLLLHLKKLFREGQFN

B1: DVD3163 (bispecific antibody, human IgG1, kappa)
heavy: EVQLVQSGAEVKKPGASVKVSCKASGYTFANYGIIWVRQAPGQGLEWMGWINTYTGKPTYAQKFQGRVTMTTDTSTSTAYMELSSLRSEDTAVYYCARKLFTTMDVTDNAMDYWGQGTTVTVSSGGGGSGGGGSEVQLVQSGAEVKKPGASVKVSCKASGYTFTSYWMHWVRQAPGQGLEWIGNINPKGGSNIYNEKFQGRVTMTRDTSISTAYMELSRLRSDDTAVYYCARLDYFGDSFDLWGQGTTVTVSS[here human IgG1 constant region without letters]
light: DIQMTQSPSSLSASVGDRVTITCRASQDISQYLNWYQQKPGKAPKLLIYYTSRLQSGVPSRFSGSGSGTDFTLTISSLQPEDFATYFCQQGNTWPPTFGQGTKLEIKRGGSGGGGSGDIQMTQSPSSLSASVGDRVTITCRASQGIRNYLNWYQQKPGKAPKLLIYYASNLEVGVPSRFSGSGSGTDYTLTISSLQPEDFATYYCQQDNRFPYTFGGGTKVEIKRTVAAPSVFIFPPSDEQLKSGTASVVCLLNNFYPREAKVQWKVDNALQSGNSQESVTEQDSKDSTYSLSSTLTLSKADYEKHKVYACEVTHQGLSSPVTKSFNRGEC
notes: DVD-Ig: outer AB441 (TNF), inner AB399 (IL-13); linkers GS-H10/GS-L10; also called DVD3163H; DVD3163L
IL-13 Neutralization Assay IC50: 0.076 nM

B2: DVD3173 (bispecific antibody, human IgG1, kappa)
heavy: EVQLVQSGAEVKKPGASVKVSCKASGYTFNNYGIIWVRQAPGQGLEWMGWINTYTGKPTYAQKFQGRVTMTTDTSTSTAYMELSSLRSEDTAVYYCARKLFNTVAVTDNAMDYWGQGTTVTVSSGGGGSGGGGSEVQLVQSGAEVKKPGASVKVSCKASGYTFTSYWMHWVRQAPGQGLEWIGNINPKGGSNIYNEKFQGRVTMTRDTSISTAYMELSRLRSDDTAVYYCARLDYFGDSFDLWGQGTTVTVSS[here human IgG1 constant region without letters]
light: DIQMTQSPSSLSASVGDRVTITCRASQDIENYLNWYQQKPGKAPKLLIYYTSRLQSGVPSRFSGSGSGTDFTLTISSLQPEDFATYFCQQGNTQPPTFGQGTKLEIKRGGSGGGGSGDIQMTQSPSSLSASVGDRVTITCRASQGIRNYLNWYQQKPGKAPKLLIYYASNLEVGVPSRFSGSGSGTDYTLTISSLQPEDFATYYCQQDNRFPYTFGGGTKVEIKRTVAAPSVFIFPPSDEQLKSGTASVVCLLNNFYPREAKVQWKVDNALQSGNSQESVTEQDSKDSTYSLSSTLTLSKADYEKHKVYACEVTHQGLSSPVTKSFNRGEC
IL-13 Neutralization Assay IC50: 0.079 nM

B3: DVD3164 (bispecific antibody, human IgG1, kappa)
heavy: EVQLVQSGAEVKKPGASVKVSCKASGYTFANYGIIWVRQAPGQGLEWMGWINTYTGKPTYAQKFQGRVTMTTDTSTSTAYMELSSLRSEDTAVYYCARKLFTTMDVTDNAMDYWGQGTTVTVSSASTKGPEVQLVQSGAEVKKPGASVKVSCKASGYTFTSYWMHWVRQAPGQGLEWIGNINPKGGSNIYNEKFQGRVTMTRDTSISTAYMELSRLRSDDTAVYYCARLDYFGDSFDLWGQGTTVTVSS[here human IgG1 constant region without letters]
light: DIQMTQSPSSLSASVGDRVTITCRASQDISQYLNWYQQKPGKAPKLLIYYTSRLQSGVPSRFSGSGSGTDFTLTISSLQPEDFATYFCQQGNTWPPTFGQGTKLEIKRTVAAPDIQMTQSPSSLSASVGDRVTITCRASQGIRNYLNWYQQKPGKAPKLLIYYASNLEVGVPSRFSGSGSGTDYTLTISSLQPEDFATYYCQQDNRFPYTFGGGTKVEIKRTVAAPSVFIFPPSDEQLKSGTASVVCLLNNFYPREAKVQWKVDNALQSGNSQESVTEQDSKDSTYSLSSTLTLSKADYEKHKVYACEVTHQGLSSPVTKSFNRGEC
notes: DVD-Ig: outer AB441 (TNF), inner AB399 (IL-13); linkers HG-short/LK-short; also called DVD3164H; DVD3164L
IL-13 Neutralization Assay IC50: 0.335 nM

B4: DVD3174 (bispecific antibody, human IgG1, kappa)
heavy: EVQLVQSGAEVKKPGASVKVSCKASGYTFNNYGIIWVRQAPGQGLEWMGWINTYTGKPTYAQKFQGRVTMTTDTSTSTAYMELSSLRSEDTAVYYCARKLFNTVAVTDNAMDYWGQGTTVTVSSASTKGPEVQLVQSGAEVKKPGASVKVSCKASGYTFTSYWMHWVRQAPGQGLEWIGNINPKGGSNIYNEKFQGRVTMTRDTSISTAYMELSRLRSDDTAVYYCARLDYFGDSFDLWGQGTTVTVSS[here human IgG1 constant region without letters]
light: DIQMTQSPSSLSASVGDRVTITCRASQDIENYLNWYQQKPGKAPKLLIYYTSRLQSGVPSRFSGSGSGTDFTLTISSLQPEDFATYFCQQGNTQPPTFGQGTKLEIKRTVAAPDIQMTQSPSSLSASVGDRVTITCRASQGIRNYLNWYQQKPGKAPKLLIYYASNLEVGVPSRFSGSGSGTDYTLTISSLQPEDFATYYCQQDNRFPYTFGGGTKVEIKRTVAAPSVFIFPPSDEQLKSGTASVVCLLNNFYPREAKVQWKVDNALQSGNSQESVTEQDSKDSTYSLSSTLTLSKADYEKHKVYACEVTHQGLSSPVTKSFNRGEC
IL-13 Neutralization Assay IC50: 0.527 nM

B5: DVD3166 (bispecific antibody, human IgG1, kappa)
heavy: EVQLVQSGAEVKKPGASVKVSCKASGYTFANYGIIWVRQAPGQGLEWMGWINTYTGKPTYAQKFQGRVTMTTDTSTSTAYMELSSLRSEDTAVYYCARKLFTTMDVTDNAMDYWGQGTTVTVSSASTKGPEVQLVQSGAEVKKPGASVKVSCKASGYTFTSYWMHWVRQAPGQGLEWIGNINPKGGSNIYNEKFQGRVTMTRDTSISTAYMELSRLRSDDTAVYYCARLDYFGDSFDLWGQGTTVTVSS[here human IgG1 constant region without letters]
light: DIQMTQSPSSLSASVGDRVTITCRASQDISQYLNWYQQKPGKAPKLLIYYTSRLQSGVPSRFSGSGSGTDFTLTISSLQPEDFATYFCQQGNTWPPTFGQGTKLEIKRTVAAPSVFIFPPDIQMTQSPSSLSASVGDRVTITCRASQGIRNYLNWYQQKPGKAPKLLIYYASNLEVGVPSRFSGSGSGTDYTLTISSLQPEDFATYYCQQDNRFPYTFGGGTKVEIKRTVAAPSVFIFPPSDEQLKSGTASVVCLLNNFYPREAKVQWKVDNALQSGNSQESVTEQDSKDSTYSLSSTLTLSKADYEKHKVYACEVTHQGLSSPVTKSFNRGEC
notes: DVD-Ig: outer AB441 (TNF), inner AB399 (IL-13); linkers HG-short/LK-long; also called DVD3166H; DVD3166L
IL-13 Neutralization Assay IC50: 0.072 nM

B6: DVD3176 (bispecific antibody, human IgG1, kappa)
heavy: EVQLVQSGAEVKKPGASVKVSCKASGYTFNNYGIIWVRQAPGQGLEWMGWINTYTGKPTYAQKFQGRVTMTTDTSTSTAYMELSSLRSEDTAVYYCARKLFNTVAVTDNAMDYWGQGTTVTVSSASTKGPEVQLVQSGAEVKKPGASVKVSCKASGYTFTSYWMHWVRQAPGQGLEWIGNINPKGGSNIYNEKFQGRVTMTRDTSISTAYMELSRLRSDDTAVYYCARLDYFGDSFDLWGQGTTVTVSS[here human IgG1 constant region without letters]
light: DIQMTQSPSSLSASVGDRVTITCRASQDIENYLNWYQQKPGKAPKLLIYYTSRLQSGVPSRFSGSGSGTDFTLTISSLQPEDFATYFCQQGNTQPPTFGQGTKLEIKRTVAAPSVFIFPPDIQMTQSPSSLSASVGDRVTITCRASQGIRNYLNWYQQKPGKAPKLLIYYASNLEVGVPSRFSGSGSGTDYTLTISSLQPEDFATYYCQQDNRFPYTFGGGTKVEIKRTVAAPSVFIFPPSDEQLKSGTASVVCLLNNFYPREAKVQWKVDNALQSGNSQESVTEQDSKDSTYSLSSTLTLSKADYEKHKVYACEVTHQGLSSPVTKSFNRGEC
IL-13 Neutralization Assay IC50: 0.152 nM

B7: DVD3167 (bispecific antibody, human IgG1, kappa)
heavy: EVQLVQSGAEVKKPGASVKVSCKASGYTFANYGIIWVRQAPGQGLEWMGWINTYTGKPTYAQKFQGRVTMTTDTSTSTAYMELSSLRSEDTAVYYCARKLFTTMDVTDNAMDYWGQGTTVTVSSASTKGPSVFPLAPEVQLVQSGAEVKKPGASVKVSCKASGYTFTSYWMHWVRQAPGQGLEWIGNINPKGGSNIYNEKFQGRVTMTRDTSISTAYMELSRLRSDDTAVYYCARLDYFGDSFDLWGQGTTVTVSS[here human IgG1 constant region without letters]
light: DIQMTQSPSSLSASVGDRVTITCRASQDISQYLNWYQQKPGKAPKLLIYYTSRLQSGVPSRFSGSGSGTDFTLTISSLQPEDFATYFCQQGNTWPPTFGQGTKLEIKRTVAAPDIQMTQSPSSLSASVGDRVTITCRASQGIRNYLNWYQQKPGKAPKLLIYYASNLEVGVPSRFSGSGSGTDYTLTISSLQPEDFATYYCQQDNRFPYTFGGGTKVEIKRTVAAPSVFIFPPSDEQLKSGTASVVCLLNNFYPREAKVQWKVDNALQSGNSQESVTEQDSKDSTYSLSSTLTLSKADYEKHKVYACEVTHQGLSSPVTKSFNRGEC
IL-13 Neutralization Assay IC50: 0.046 nM

B8: DVD3177 (bispecific antibody, human IgG1, kappa)
heavy: EVQLVQSGAEVKKPGASVKVSCKASGYTFNNYGIIWVRQAPGQGLEWMGWINTYTGKPTYAQKFQGRVTMTTDTSTSTAYMELSSLRSEDTAVYYCARKLFNTVAVTDNAMDYWGQGTTVTVSSASTKGPSVFPLAPEVQLVQSGAEVKKPGASVKVSCKASGYTFTSYWMHWVRQAPGQGLEWIGNINPKGGSNIYNEKFQGRVTMTRDTSISTAYMELSRLRSDDTAVYYCARLDYFGDSFDLWGQGTTVTVSS[here human IgG1 constant region without letters]
light: DIQMTQSPSSLSASVGDRVTITCRASQDIENYLNWYQQKPGKAPKLLIYYTSRLQSGVPSRFSGSGSGTDFTLTISSLQPEDFATYFCQQGNTQPPTFGQGTKLEIKRTVAAPDIQMTQSPSSLSASVGDRVTITCRASQGIRNYLNWYQQKPGKAPKLLIYYASNLEVGVPSRFSGSGSGTDYTLTISSLQPEDFATYYCQQDNRFPYTFGGGTKVEIKRTVAAPSVFIFPPSDEQLKSGTASVVCLLNNFYPREAKVQWKVDNALQSGNSQESVTEQDSKDSTYSLSSTLTLSKADYEKHKVYACEVTHQGLSSPVTKSFNRGEC
IL-13 Neutralization Assay IC50: 0.078 nM
